This is an account of results in the supplement of paper PMC4466236.

Over roughly 33,000 sequences, “E-score (dimensionless, -0.5 to 0.5)” has its median near -0.058; the highest 2% begin near 0.35. The list shows a part of the results.

The test deals with MvaT. The test is described as follows: PBM 8-mer E-score (mean of HK and ME arrays) (E-score (dimensionless, -0.5 to 0.5)); higher = stronger relative binding preference; most listed sequences are background and not binding sites. In short, it runs like this: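 Reported values are rank-based E-scores, taken as the mean of two universal arrays and parsed with a custom script. Each 8-mer score falls between -0.5 and 0.5. The arrays, ME and HK, were double-stranded 60-mers with a constant 25-mer primer region and a variable 35-mer region covering all 8-mers. They were probed, by an earlier protocol, with full-length P. aeruginosa MvaT carrying an N-terminal glutathione S-transferase fusion.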
In the case of AAAGGGCT, the “PBM 8-mer E-score” value was -0.216.
To AGATGTCA belongs 0.0185; to ACGTACAC, 0.107.
Consider ACGCCGTC, for which the “PBM 8-mer E-score” value is -0.242.
To AAGAACTG belongs 0.0302; to ACTAATGC, 0.085; to GGCGTCGA, -0.261.
Consider ATACGCAC, for which the “PBM 8-mer E-score” value is -0.017.
Consider ATCGTCCA, for which the “PBM 8-mer E-score” value was -0.0468.
The result for AGCCTGAT reads -0.106; that for CTCAGACA, -0.261.
For the sequence AATCATTG, the “PBM 8-mer E-score” value is 0.116.
The result for TGTGGGAA reads 0.0206; that for CCGACCTC, -0.313; that for AAAATGGG, -0.0336.
The result for CACATTAC reads 0.16; that for AGCTCGGC, -0.213; that for AGCCACTA, -0.0885.
To CGGTCATC belongs -0.0971.
As to GCTACATA, the “PBM 8-mer E-score” value was found to be 0.04.
Turning to CCACGACC, the “PBM 8-mer E-score” value was -0.119.
The result for AGCTACTC reads -0.223; that for GAGAAGGA, -0.221; that for CACTATAG, 0.196.
In the case of ACGTGCGG, the “PBM 8-mer E-score” value was -0.0576.
CTCTTCTA: the “PBM 8-mer E-score” value was determined as 0.0459.
To ATATCCTA belongs 0.156; to GAATCTCA, -0.126; to CTCAGATC, -0.108.
To GAAGGTAA belongs -0.101; to GGATTTAC, -0.037.
To CCCCACGG belongs -0.322.
For CAGTCGGA, the “PBM 8-mer E-score” value was -0.178.
To AGATCTAC belongs -0.138; to ATAGATGC, 0.067.
Take GCGGGCGA: the “PBM 8-mer E-score” value is -0.301.
The result for AAGTTTTG reads 0.238; that for CGAAACGA, -0.00232; that for GACCCGTA, -0.277.
Regarding CTGAGTGC, the “PBM 8-mer E-score” value was -0.16.
As to CTACTAAA, the “PBM 8-mer E-score” value was 0.168.
The result for CTTGGTTA reads 0.0108.
To CCGGGCCA belongs -0.174; to ATAAATAC, 0.362.
On to GTAAAGCA, for which the “PBM 8-mer E-score” value came to 0.0554.
With AAGTAATG, the “PBM 8-mer E-score” value was 0.276.
To AAGCGATA belongs -0.00776; to AATGCTAG, 0.0259.
To ATGTGGCA belongs 0.0656; to AGTTCGCC, 0.0954.
The result for CGGACGGC reads -0.197; that for CAACTCTA, 0.175; that for CGGAGATC, -0.221.
As for CGCTACAA, the “PBM 8-mer E-score” value is -0.000717.
To GTCAATAA belongs 0.189.
The result for TATGATGA reads 0.115; that for ACCTTATG, -0.0162; that for ACAAAACA, 0.222.
Take CCGGACGC: the “PBM 8-mer E-score” value is -0.242.
To AGTGGTGA belongs 0.108; to AGCCATAG, -0.0864.
The result for AGTTGCAG reads 0.0464.
To GTTAGTAA belongs 0.127; to AAGACTTG, -0.00277.
Turning to ATGTAGTG, the “PBM 8-mer E-score” value came out at 0.0237.
With GTTATAAA, the “PBM 8-mer E-score” value was 0.345.
To CTCACAGA belongs -0.14; to ACTTGATA, 0.174.
For the sequence CTGCGCCC, the “PBM 8-mer E-score” value is -0.118.
As to CCTTTACC, the “PBM 8-mer E-score” value is -0.161.
The result for CGATTGCG reads -0.0898; that for AAAGCGCA, -0.0373; that for CTAAAATA, 0.353.
To CGACTCCG belongs -0.255.
Turning to TGGGCAAA, the “PBM 8-mer E-score” value is -0.0461.
The result for AAATAATC reads 0.301; that for ACGCGTTC, -0.184; that for CCACGAAA, -0.117.
For CCCTCCCG, the “PBM 8-mer E-score” value is -0.222.
Regarding GAGCCATC, the “PBM 8-mer E-score” value was -0.139.
To ACTCGGCC belongs -0.00469; to CATGCCAA, -0.101; to ATGAAAGA, 0.188.
The result for AACTCCCG reads -0.0446.
The result for TTACTCAA reads 0.152; that for ATGCATAC, 0.0757.
In the case of CTTCCCCC, the “PBM 8-mer E-score” value was -0.176.
To CCGAGAAC belongs -0.116; to ACGCTGCA, -0.0582; to GCAAATCA, 0.104.
In the case of ATATCGTC, the “PBM 8-mer E-score” value turned out to be 0.0997.
To AACCTCTT belongs 0.00513; to AACGCTAC, -0.125.
As for AGGATCCA, the “PBM 8-mer E-score” value was -0.259.
